Reference: PubChem BioAssay AID463173 (ICCB-Longwood Screening Facility, Harvard Medical School, 2010)
Among all 52,000 compounds or so, about 4,300 (8.3%) were called active. No stated cut-off is given here; in the data, active means survival mostly below about 52% (no sharp cut-off); inactive means mostly above about 56%. Some of the results follow.

test system: DeltatarO mutant; experiment: growth inhibition of S. aureus wild type versus tarO mutant, primary screen, teichoic acid synthesis inhibitors, RN4220, OD600 (AID 463173); details: OD600, 18 h, active compounds read low, screened at 18.75 µg/mL (by protocol)

Row | Structure (SMILES) | survival
1 | CCc1ccc(NC(=O)Cn2c(=O)n(CCC(=O)N3CCc4ccccc4C3)c(=O)c3ccccc32)cc1 | inactive: 108%
2 | Cc1ccccc1-c1nn2c(=O)cc(CN3CCN(C(=O)/C=C/c4ccccc4)CC3)nc2s1 | inactive: 116%
3 | COc1cccc(Cn2c(CNS(=O)(=O)c3ccc(F)c(Cl)c3)nc3cccnc32)c1 | inactive: 134%
4 | O=C(COc1ccccc1)NCCc1csc(-c2ccc(Cl)cc2)n1 | inactive: 94%
5 | O=C(c1ccc2c(c1)OCCO2)N(Cc1cccnc1)c1nc2c(Cl)cccc2s1 | inactive: 117%
6 | CCOc1ccc(OCC)c(NC(=O)C2CCN(S(=O)(=O)c3c(C)noc3/C=C/c3ccccc3F)CC2)c1 | inactive: 80%
7 | CC(C)COc1ccc(C(=O)Nc2cc3nn(-c4ccccc4)nc3cc2Cl)cc1 | inactive: 74%
8 | CCc1nn2c(=O)cc(COc3ccc(/C=C(\C#N)C(=O)Nc4ccc(F)cc4)cc3OC)nc2s1 | inactive: 106%
9 | CC(C)C(=O)NCC(c1ccc2c(c1)OCO2)N1CCN(c2ccccc2F)CC1 (stereo unspecified) | inactive: 74%
10 | O=C(NCc1ccccc1)c1ccco1 | inactive: 92%
11 | COc1ccccc1C(=O)Nc1ccc2oc(-c3cccc(Cl)c3Cl)nc2c1 | inactive: 79%
12 | CCOC(=O)c1ccc(N2C(=O)c3n[nH]c(C)c3C2c2cccc(Br)c2)cc1 (stereo unspecified) | active: 8%
13 | COc1ccc(C(=O)c2cn(Cc3ccccc3F)c3cc4c(cc3c2=O)OCO4)cc1 | inactive: 82%
14 | O=c1cc(-c2ccccc2)n2c(SCc3ccc(Cl)cc3)nnc2[nH]1 | inactive: 78%
15 | Cc1ccc(CNC(=O)c2nc(SCc3ccccc3F)ncc2Cl)cc1 | inactive: 76%
16 | CCOC(=O)c1ccccc1NC(=O)CSc1nc2ccncc2[nH]1 | inactive: 85%
17 | O=C(NCc1ccco1)c1ccc(Cn2c(SCc3ccc(F)cc3)nc3cccnc32)cc1 | inactive: 92%
18 | Cc1ccc2nc(N3CCC(C(=O)N4CCN(c5cccc(C)c5C)CC4)CC3)[nH]c2c1 | inactive: 87%
19 | Cc1sc2c(c1C)c(=O)n(-c1ccc(Cl)cc1)c(=O)n2Cc1cc(=O)n2ccccc2n1 | inactive: 80%

Row | Structure (SMILES) | survival
20 | CC1CCCN(C(=O)c2cc3c(=O)n(C)c4ccccc4c3s2)C1 (stereo unspecified) | inactive: 138%
21 | COc1ccc(C2C(C(N)=O)=C(C)Nc3nc(SCc4ccccc4Cl)nn32)cc1OC (stereo unspecified) | inactive: 173%
22 | CCOc1ccc(C(=O)NCc2nc3cccnc3n2Cc2ccc(F)cc2)cc1OCC | inactive: 54%
23 | Cc1ccc(C2CCN(C(=O)c3cnn(-c4cccc(Cl)c4)c3C3CCN(C(=O)OC(C)(C)C)CC3)C2)cc1 (stereo unspecified) | inactive: 84%
24 | O=C(COc1ccccc1)NCc1ccc2c(c1)CCN2C(=O)c1ccc(Cl)cc1 | inactive: 71%
25 | COc1ccc(NC(=O)N(CCC(C)C)C(C)c2cccs2)c(OC)c1 (stereo unspecified) | inactive: 90%
26 | COc1ccc(OC)c(NC(=O)c2cc(-c3ccc(Cl)s3)nc3ccccc23)c1 | inactive: 72%
27 | CCC(=O)Nc1cc(-c2cccc(C)c2)nn1-c1ccccc1 | inactive: 83%
28 | Cc1cccc(-c2nc(SCC(=O)N3CCc4ccccc43)c3c(=O)n(C)c(=O)n(C)c3n2)c1 | inactive: 88%
29 | COc1ccc(N2CCN(Cc3nc4c(c(=O)[nH]c(=O)n4C)n3Cc3ccc(Cl)cc3)CC2)cc1 | inactive: 102%
30 | CC(=O)Nc1cc(C(C)C)c(O)c(C(C)C)c1 | inactive: 95%
31 | CCOC(=O)CNc1nc(Oc2ccc(=O)n(C)n2)nc(N(CC)CC)n1 | inactive: 77%
32 | Cc1nc2cc(C(=O)O)ccc2n1C | inactive: 67%
33 | CCOc1ccc(-n2c(SCC(=O)N3CCc4ccccc43)nc3c([nH]c4ccccc43)c2=O)cc1 | inactive: 69%
34 | Cc1cccc(-c2nnc(SCc3cc(=O)c4cccc(Cl)c4[nH]3)n2C)c1 | inactive: 90%
35 | COc1cccc2c1ncc1c(-c3ccc(C)cc3)nn(-c3cccc([N+](=O)[O-])c3)c12 | inactive: 87%
36 | CCCN(Cc1cccs1)C(=O)Nc1ccc(OCC)cc1 | inactive: 67%
37 | COc1ccc(NC(=O)Cn2c(=O)c(-c3cc(C)ccc3NC(C)=O)nc3ccccc32)c(OC)c1 | inactive: 94%
38 | Cc1cc(C)cc(NC(=O)C(=O)NCC(c2ccc3c(c2)OCO3)N2CCN(C)CC2)c1 (stereo unspecified) | inactive: 76%

Row | Structure (SMILES) | survival
39 | COc1ccc(-n2ncc3c(NC(C)(C)CO)ncnc32)cc1 | inactive: 75%
40 | Cc1ccc(CSc2nnc(-c3ccncc3)n2CC2CCCO2)cc1 (stereo unspecified) | inactive: 54%
41 | CCOc1ccc(NC(=O)Cn2c3ncccc3c(=O)n2-c2ccc(CC)cc2)cc1 | inactive: 85%
42 | CCN(CC)S(=O)(=O)c1ccc(NC(=O)NCc2noc3ccc(C)cc23)cc1 | inactive: 87%
43 | Cc1nc2cccnc2n1C1CCN(S(C)(=O)=O)CC1 | inactive: 80%
44 | CC1(C)Cc2ccccc2-c2nc3n(c(=O)c21)CCCS3 | inactive: 76%
45 | Cc1cc(S(=O)(=O)C(CNC(=O)c2ccc(OC(C)C)cc2)c2cccs2)ccc1F (stereo unspecified) | inactive: 80%
46 | COc1ccccc1CNC(=O)CCc1c(C)nn(-c2ccc(N3CCOCC3)nn2)c1C | inactive: 80%
47 | COc1ccc(NC(=O)CSc2nc3c([nH]c4ccccc43)c(=O)n2-c2ccccc2)c(OC)c1 | inactive: 102%
48 | O=C(NCc1ccco1)c1ccc2c(c1)N(Cc1ccccc1)C(=O)c1ccccc1S2(=O)=O | inactive: 68%
49 | O=C(CSc1nc(O)cc(=O)[nH]1)c1ccc(O)cc1O | inactive: 75%
50 | COCCNc1ncnc2c1c(-c1ccccc1)cn2-c1ccc(C)c(Cl)c1 | inactive: 81%
51 | O=C(NCc1ccc(F)cc1)c1ccc2c(c1)N(Cc1ccc(F)cc1Cl)C(=O)CS2 | inactive: 57%
52 | CCCSc1ncc(Cl)c(C(=O)Nc2ccc(OC)cc2OC)n1 | active: 46%
53 | COc1cccc(CNC(=O)CCn2ccc3cc(S(=O)(=O)N4CCCC4)ccc32)c1 | inactive: 94%
54 | Cc1ccc(CN2C(=O)SC(Nc3ccccc3)C2=O)cc1 (stereo unspecified) | active: 40%
55 | O=C(NCCn1cc(SCc2ccc(C(F)(F)F)cc2)c2ccccc21)c1ccccc1F | active: 36%
56 | CC(C)CCSc1nc2c(c(=O)n(C)c(=O)n2C)n1Cc1ccccc1Cl | active: 34%
